Target: herpes simplex virus type 1 induced DNA polymerase (Human herpesvirus 1, UniProt P04293)
Assay: Inhibition of herpes simplex virus type 1 induced DNA polymerase
Format: biochemical

SMILES: O=C(O)P(=O)(O)O [phosphonoformic acid]
- inhibition at 5 µM (5 μM): 15%
- inhibition at 20 µM (20 μM): 43%
- inhibition at 500 µM (500 μM): 90%
